Shown are siRNA guide strands that differ only in the seed, positions 2 to 7.
Columns and labels:
GL261 = assay: cell viability relative to siNT1 (ATP content); H4 human neuroglioma and GL261 mouse glioma; higher = less toxic; conditions: siRNA concentration 25 nM; 96 h; mouse
Procedure: (§1)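 Arrayed screen of all 4096 6mer seeds. Each seed sits at guide-strand positions 2-7 of a neutral 19mer siRNA backbone (siNT1-based, passenger strand 2'-O-methyl modified at positions 1-2 to block RISC loading, 3' DNA overhangs). The guide strand is built here as U + seed + ACAUGUAAACCA. Cells were reverse transfected in triplicate in 384-well plates (H4 at 10 nM, GL261 at 25 nM) with Lipofectamine RNAiMAX. Viability was read as ATP content (CellTiter-Glo) 96 h after transfection and normalised to siNT1 (%).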

H4 = assay: as above; conditions: siRNA concentration 10 nM; 96 h; human
Procedure: as §1
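Further: cells reverse transfected with siRNA duplexes via lipid reagent, ATP read by luminescence, triplicate wells, values scaled to mean viability with non-targeting control siNT1.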

Row | Sequence | cell viability (GL261) [%] | cell viability (H4) [%]
1 | UAUACCCACAUGUAAACCA | 46.7 | 52.9
2 | UAUACCGACAUGUAAACCA | 56.5 | 82.4
3 | UAUACCUACAUGUAAACCA | 73.2 | 74.5
4 | UAUACGAACAUGUAAACCA | 59.6 | 106
5 | UAUACGCACAUGUAAACCA | 57.2 | 116
6 | UAUACGGACAUGUAAACCA | 55.2 | 91.9
7 | UAUACGUACAUGUAAACCA | 64.1 | 81.1
8 | UAUACUAACAUGUAAACCA | 60.6 | 115
9 | UAUACUCACAUGUAAACCA | 42 | 79.7
10 | UAUACUGACAUGUAAACCA | 53.5 | 89.3
11 | UAUACUUACAUGUAAACCA | 50.2 | 77.7
12 | UAUAGAAACAUGUAAACCA | 66 | 104
13 | UAUAGACACAUGUAAACCA | 56.3 | 71
14 | UAUAGAGACAUGUAAACCA | 81.1 | 104
15 | UAUAGAUACAUGUAAACCA | 61.5 | 108
16 | UAUAGCAACAUGUAAACCA | 77.3 | 104
17 | UAUAGCCACAUGUAAACCA | 16.3 | 38.1
18 | UAUAGCGACAUGUAAACCA | 73.6 | 79.2
19 | UAUAGCUACAUGUAAACCA | 35.5 | 72.9
20 | UAUAGGAACAUGUAAACCA | 53.3 | 117
21 | UAUAGGCACAUGUAAACCA | 7.55 | 32.4
22 | UAUAGGGACAUGUAAACCA | 37.2 | 96.7

Row | Sequence | cell viability (GL261) [%] | cell viability (H4) [%]
23 | UAUAGGUACAUGUAAACCA | 41.3 | 57.2
24 | UAUAGUAACAUGUAAACCA | 75 | 118
25 | UAUAGUCACAUGUAAACCA | 59.9 | 99
26 | UAUAGUGACAUGUAAACCA | 70 | 99.5
27 | UAUAGUUACAUGUAAACCA | 85.7 | 93
28 | UAUAUAAACAUGUAAACCA | 80.5 | 106
29 | UAUAUACACAUGUAAACCA | 56.4 | 71.5
30 | UAUAUAGACAUGUAAACCA | 66.6 | 76.2
31 | UAUAUAUACAUGUAAACCA | 46.8 | 84
32 | UAUAUCAACAUGUAAACCA | 73.3 | 78.1
33 | UAUAUCCACAUGUAAACCA | 21.8 | 67.7
34 | UAUAUCGACAUGUAAACCA | 71.8 | 86.2
35 | UAUAUCUACAUGUAAACCA | 68.5 | 99.1
36 | UAUAUGAACAUGUAAACCA | 46.3 | 88.7
37 | UAUAUGCACAUGUAAACCA | 20.2 | 14.9
38 | UAUAUGGACAUGUAAACCA | 57.2 | 85.1
39 | UAUAUGUACAUGUAAACCA | 42.3 | 95.9
40 | UAUAUUAACAUGUAAACCA | 53.2 | 105
41 | UAUAUUCACAUGUAAACCA | 55.2 | 84
42 | UAUAUUGACAUGUAAACCA | 49.8 | 95.8
43 | UAUAUUUACAUGUAAACCA | 63.7 | 82.4
44 | UAUCAAAACAUGUAAACCA | 53 | 99.1

Row | Sequence | cell viability (GL261) [%] | cell viability (H4) [%]
45 | UAUCAACACAUGUAAACCA | 38.2 | 101
46 | UAUCAAGACAUGUAAACCA | 47.5 | 110
47 | UAUCAAUACAUGUAAACCA | 53.2 | 117
48 | UAUCACAACAUGUAAACCA | 39.6 | 110
49 | UAUCACCACAUGUAAACCA | 12.2 | 98.5
50 | UAUCACGACAUGUAAACCA | 41.9 | 88.2
51 | UAUCACUACAUGUAAACCA | 21.8 | 81.8
52 | UAUCAGAACAUGUAAACCA | 40.4 | 89.4
53 | UAUCAGCACAUGUAAACCA | 18.3 | 71.2
54 | UAUCAGGACAUGUAAACCA | 30.7 | 108
55 | UAUCAGUACAUGUAAACCA | 45.9 | 63.2
56 | UAUCAUAACAUGUAAACCA | 35.7 | 103
57 | UAUCAUCACAUGUAAACCA | 29.3 | 77.3
58 | UAUCAUGACAUGUAAACCA | 33 | 104
59 | UAUCAUUACAUGUAAACCA | 58.9 | 102
60 | UAUCCAAACAUGUAAACCA | 56.5 | 72.5
61 | UAUCCACACAUGUAAACCA | 39.3 | 65.2
62 | UAUCCAGACAUGUAAACCA | 36.5 | 88.1
63 | UAUCCAUACAUGUAAACCA | 69.9 | 101
64 | UAUCCCAACAUGUAAACCA | 48.3 | 39.1
65 | UAUCCCCACAUGUAAACCA | 28.5 | 38.5
66 | UAUCCCGACAUGUAAACCA | 58 | 96.1

Row | Sequence | cell viability (GL261) [%] | cell viability (H4) [%]
67 | UAUCCCUACAUGUAAACCA | 15.6 | 66.7
68 | UAUCCGAACAUGUAAACCA | 63.6 | 90.5
69 | UAUCCGCACAUGUAAACCA | 41.2 | 65.3
70 | UAUCCGGACAUGUAAACCA | 54.5 | 69.3
71 | UAUCCGUACAUGUAAACCA | 50.8 | 82
72 | UAUCCUAACAUGUAAACCA | 74.2 | 92.2
73 | UAUCCUCACAUGUAAACCA | 32.5 | 46.7
74 | UAUCCUGACAUGUAAACCA | 60.9 | 86.7
75 | UAUCCUUACAUGUAAACCA | 65.9 | 86.8
76 | UAUCGAAACAUGUAAACCA | 81.5 | 105
77 | UAUCGACACAUGUAAACCA | 47.3 | 88.8
78 | UAUCGAGACAUGUAAACCA | 59.7 | 91.7
79 | UAUCGAUACAUGUAAACCA | 70.2 | 114
80 | UAUCGCAACAUGUAAACCA | 81.3 | 105
81 | UAUCGCCACAUGUAAACCA | 17.9 | 75.1
82 | UAUCGCGACAUGUAAACCA | 52 | 79.3
83 | UAUCGCUACAUGUAAACCA | 68.1 | 90.1
84 | UAUCGGAACAUGUAAACCA | 52.4 | 90.2
85 | UAUCGGCACAUGUAAACCA | 73 | 77.3
86 | UAUCGGGACAUGUAAACCA | 44.9 | 87.5

From the supplement of paper PMC8948288
